Source: the supplement of paper PMC8728848
The other results are listed elsewhere or left out.

Experiments:
Test in all cases: glycan array binding signal (z-score within array); higher = stronger binding
Conditions in all cases: glycan notation: IUPAC condensed, linker removed
[1] = target: GlcNAc(b1-2)Gal(b1-3)GalNAc
Summary of the method: (§1)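 Glycan array data were curated from 3228 arrays in the Consortium for Functional Glycomics database and kept only where the protein sequence was available. Glycan names were converted to IUPAC-condensed notation, and columns mapping to the same glycan were averaged. The binding signal is a within-array Z-score, averaged across arrays of the same protein sequence at different concentrations or buffers and across linkers. Negative Z-scores can be read as non-binding.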

[2] = target: GlcNAc(b1-2)Man(a1-3)[GlcNAc(b1-2)Man(a1-6)]Man(b1-4)GlcNAc(b1-4)GlcNAc
Summary of the method: as §1

[3] = target: GlcNAc(b1-2)Man(a1-3)[GlcNAc(b1-2)Man(a1-6)]Man(b1-4)GlcNAc(b1-4)[Fuc(a1-6)]GlcNAc
Summary of the method: as §1

[4] = target: GlcNAc(b1-2)Man(a1-3)[GlcNAc(b1-4)][GlcNAc(b1-2)Man(a1-6)]Man(b1-4)GlcNAc(b1-4)GlcNAc
Summary of the method: as §1

[5] = target: GlcNAc(b1-2)Man(a1-3)[GlcNAc(b1-4)][GlcNAc(b1-2)Man(a1-6)]Man(b1-4)GlcNAc(b1-4)[Fuc(a1-6)]GlcNAc
Summary of the method: as §1

[6] = target: GlcNAc(b1-2)[GlcNAc(b1-4)]Man(a1-3)[GlcNAc(b1-2)Man(a1-6)]Man(b1-4)GlcNAc(b1-4)GlcNAc
Summary of the method: as §1

[7] = target: GlcNAc(b1-2)[GlcNAc(b1-4)]Man(a1-3)[GlcNAc(b1-4)][GlcNAc(b1-2)Man(a1-6)]Man(b1-4)GlcNAc(b1-4)GlcNAc
Summary of the method: as §1

[8] = target: GlcNAc(b1-2)[GlcNAc(b1-4)]Man(a1-3)[GlcNAc(b1-4)][GlcNAc(b1-2)[GlcNAc(b1-6)]Man(a1-6)]Man(b1-4)GlcNAc(b1-4)GlcNAc
Summary of the method: as §1

[9] = target: GlcNAc(b1-2)[GlcNAc(b1-4)]Man(a1-3)[GlcNAc(b1-4)][GlcNAc(b1-2)[GlcNAc(b1-6)]Man(a1-6)]Man(b1-4)GlcNAc(b1-4)[Fuc(a1-6)]GlcNAc
Summary of the method: as §1

[10] = target: GlcNAc(b1-2)[GlcNAc(b1-6)]Man(a1-6)[GlcNAc(b1-2)Man(a1-3)]Man(b1-4)GlcNAc(b1-4)GlcNAc
Summary of the method: as §1

[11] = target: GlcNAc(b1-2)[GlcNAc(b1-6)]Man(a1-6)[GlcNAc(b1-2)Man(a1-3)]Man(b1-4)GlcNAc(b1-4)[Fuc(a1-6)]GlcNAc
Summary of the method: as §1

[12] = target: GlcNAc(b1-2)[GlcNAc(b1-6)]Man(a1-6)[GlcNAc(b1-4)][GlcNAc(b1-2)Man(a1-3)]Man(b1-4)GlcNAc(b1-4)GlcNAc
Summary of the method: as §1

[13] = target: GlcNAc(b1-3)Fuc
Summary of the method: as §1

[14] = target: GlcNAc(b1-3)Gal
Summary of the method: as §1

[15] = target: GlcNAc(b1-3)Gal(b1-3)GalNAc
Summary of the method: as §1

[16] = target: GlcNAc(b1-3)Gal(b1-4)Glc
Summary of the method: as §1

[17] = target: GlcNAc(b1-3)Gal(b1-4)GlcNAc
Summary of the method: as §1

[18] = target: GlcNAc(b1-3)Gal(b1-4)GlcNAc(b1-2)Man(a1-3)[GlcNAc(b1-3)Gal(b1-4)GlcNAc(b1-2)Man(a1-6)]Man(b1-4)GlcNAc(b1-4)GlcNAc
Summary of the method: as §1

[19] = target: GlcNAc(b1-3)Gal(b1-4)GlcNAc(b1-2)Man(a1-3)[GlcNAc(b1-3)Gal(b1-4)GlcNAc(b1-2)Man(a1-6)]Man(b1-4)GlcNAc(b1-4)[Fuc(a1-6)]GlcNAc
Summary of the method: as §1

[20] = target: GlcNAc(b1-3)Gal(b1-4)GlcNAc(b1-2)[GlcNAc(b1-3)Gal(b1-4)GlcNAc(b1-6)]Man(a1-6)[GlcNAc(b1-3)Gal(b1-4)GlcNAc(b1-2)Man(a1-3)]Man(b1-4)GlcNAc(b1-4)GlcNAc
Summary of the method: as §1

[21] = target: GlcNAc(b1-3)Gal(b1-4)GlcNAc(b1-3)Gal(b1-4)GlcNAc
Summary of the method: as §1

[22] = target: GlcNAc(b1-3)Gal(b1-4)GlcNAc(b1-3)Gal(b1-4)GlcNAc(b1-2)Man(a1-3)[GlcNAc(b1-3)Gal(b1-4)GlcNAc(b1-3)Gal(b1-4)GlcNAc(b1-2)Man(a1-6)]Man(b1-4)GlcNAc(b1-4)GlcNAc
Summary of the method: as §1

B1: CBM40 CPF071 (Clostridium perfringens) (protein)
chain: MAHHHHHHVGTGSNDDDDKSPDPMLSSLGEYKDINLESSNASNITYDLEKYKNLDEGTIVVRFNSKDSKIQSLLGISNSKTKNGYFNFYVTNSRVGFELRNQKNEGNTQNGTENLVHMYKDVALNDGDNTVALKIEKNKGYKLFLNGKMIKEVKDTNTKFLNNIENLDSAFIGKTNRYGQSNEYNFKGNIGFMNIYNEPLGDDYLLSKTGETK
Q: What does the source list for B1?
A: glycan array binding signal (z-score) [1]: -0.332; glycan array binding signal (z-score) [2]: 0.203; glycan array binding signal (z-score) [3]: 0.113; glycan array binding signal (z-score) [4]: -0.468; glycan array binding signal (z-score) [5]: -0.144; glycan array binding signal (z-score) [6]: -0.358; glycan array binding signal (z-score) [7]: -0.53; glycan array binding signal (z-score) [8]: -0.569; glycan array binding signal (z-score) [9]: -0.562; glycan array binding signal (z-score) [10]: -0.153; glycan array binding signal (z-score) [11]: -0.247; glycan array binding signal (z-score) [12]: -0.41; glycan array binding signal (z-score) [13]: 0.034; glycan array binding signal (z-score) [14]: -0.156; glycan array binding signal (z-score) [15]: -0.288; glycan array binding signal (z-score) [16]: -0.407; glycan array binding signal (z-score) [17]: -0.539; glycan array binding signal (z-score) [18]: 0.071; glycan array binding signal (z-score) [19]: -0.08; glycan array binding signal (z-score) [20]: 0.061; glycan array binding signal (z-score) [21]: -0.473; glycan array binding signal (z-score) [22]: 0.03
